# From US7592316B2, “Peptides as NS3-serine protease inhibitors of hepatitis C virus” (Schering Corporation, priority 2000, dated 2009)
# Molecular target: HCV NS3/NS4A protease (strain 1a) (Hepatitis C virus genotype 1a, UniProt P27958)
# Experiment: biochemical
# Conditions: Table 5; HCV NS3/NS4A protease, spectrophotometric assay, 30° C., pH 6.5; read-out: Ki* Range
row,Ki [µM],Compound
1,0.101 to 1,C=CCCCC(NC(=O)[C@@H]1[C@@H]2[C@H](CN1C(=O)[C@@H](NC(=O)OC(C)(C)C)C1CCCCC1)C2(C)C)C(=O)C(=O)O (some centres unmarked)
2,> 1,COC(=O)C(=O)C(CC(C)C)NC(=O)[C@@H]1[C@@H]2[C@H](CN1C(=O)[C@@H](NC(=O)OC(C)(C)C)C1CCCCC1)C2(C)C (some centres unmarked)
3,0.101 to 1,C=CCCC(NC(=O)[C@@H]1[C@H]2[C@@H](CN1C(=O)[C@@H](NC(=O)OC(C)(C)C)C1CCCC1)C2(C)C)C(=O)C(=O)NCC=C (some centres unmarked)
4,0.101 to 1,CCCC(NC(=O)[C@@H]1[C@@H]2[C@H](CN1C(=O)[C@@H](NC(=O)NC(C)C)C(C)(C)C)C2(C)C)C(=O)C(N)=O (some centres unmarked)
5,> 1,C=CCONC(=O)C(=O)C(CC1CC1)NC(=O)[C@@H]1[C@@H]2[C@H](CN1C(=O)[C@@H](NC(=O)OC(C)(C)C)C1CCCCC1)C2(C)C (some centres unmarked)
6,0.101 to 1,CCCC(NC(=O)[C@@H]1[C@H]2[C@@H](CN1C(=O)[C@@H](NC(=O)OC(CC)CC)C1Cc3ccccc3C1)C2(C)C)C(=O)C(N)=O (some centres unmarked)
7,> 1,C=CCNC(=O)C(=O)C(CCC)NC(=O)C1(C)CC(C)(C)CN1C(=O)[C@H](NC(=O)OC(C)(C)C)C1CCCCC1 (some centres unmarked)
8,0.101 to 1,C=CCCC(NC(=O)[C@@H]1[C@H]2[C@H](CN1C(=O)[C@@H](NC(=O)OC(C)(C)C)C(C)(C)C)C2(C)C)C(=O)C(=O)NCCC(=O)OC(C)(C)C (some centres unmarked)
9,> 1,C=CCC(NC(=O)[C@@H]1[C@@H]2[C@H](CN1C(=O)[C@@H](NC(=O)OC(C)(C)C)C1CCCCC1)C2(C)C)C(=O)C(=O)OC (some centres unmarked)

row,Compound,Ki [µM]
1,"CCCC(NC(=O)[C@@H]1CC(C)(C)CN1C(=O)[C@@H](NC(=O)O[C@@H](C)C(C)C)C(C)(C)C)C(=O)C(=O)NCC(=O)N[C@H](C(=O)N(C)C)c1ccccc1 (stereo partly drawn) ({Isobutoxycarbonyl(1S-Me)}-[Tle][Pro(4,4-Me2)][X2]G[Phg]-NMe2)",0.001 to 0.1
2,"C=CCCC(NC(=O)[C@@H]1[C@H]2[C@@H](CN1C(=O)[C@@H](NC(=O)OC(C)(C)C)C1Cc3ccccc3C1)C2(C)C)C(=O)C(=O)NCC(=O)N[C@H](C(=O)N(C)C)c1ccccc1 (stereo partly drawn) [drawing 1616] (Boc-[Igl][Pro(3S,4R-CMe2)][X6]G[Phg]-NMe2)",0.001 to 0.1
3,"CCCC(NC(=O)[C@@H]1[C@@H]2[C@H](CN1C(=O)[C@@H](NC(=O)NC13CC4CC(CC(C4)C1)C3)C(C)(C)C)C2(C)C)C(=O)C(=O)NCC(=O)N[C@H](C(=O)N(C)C)c1ccccc1 (stereo partly drawn) ({NH(1-Adamantyl)-CO}-[Tle][Pro(3R,4S-CMe2)][X2]G[Phg]-NMe2)",0.001 to 0.1

# Same assay, conditions: Table 6; HCV NS3/NS4A protease, 30° C., pH 6.5; read-out: Ki*
row,Ki [µM],Compound
1,0.001 to 0.1,CNC(=O)C(=O)C(CC1CC1)NC(=O)[C@@H]1[C@@H]2[C@H](CN1C(=O)[C@@H](NC(=O)OC(C)C(C)C)C1Cc3ccccc3C1)C2(C)C (some centres unmarked)
2,0.001 to 0.1,CN(C)C(=O)[C@@H](NC(=O)CNC(=O)C(=O)C(CC1CC1)NC(=O)[C@@H]1[C@H]2CC(C)(C)O[C@H]2CN1C(=O)[C@@H](NC(=O)OC(C)(C)C(F)(F)F)C1CCCCC1)c1ccccc1 (some centres unmarked)
3,0.101 to 1,C=CCNC(=O)C(=O)C(CCC)NC(=O)[C@@H]1[C@@H]2[C@H](CN1C(=O)C(NC(=O)OC1CC3CCC1(C)C3(C)C)C1CCCCC1)C2(C)C (some centres unmarked)
4,0.101 to 1,C[C@@H](NC(=O)N[C@H](C(=O)N1C[C@H]2[C@@H]([C@H]1C(=O)NC(CC1CCC1)C(=O)C(N)=O)C2(C)C)C(C)(C)C)c1ccccc1 (some centres unmarked)
5,0.101 to 1,CC(C)(C)NC(=O)N[C@H](C(=O)N1C[C@H]2[C@@H]([C@H]1C(=O)NC(CC1CCC1)C(=O)C(N)=O)C2(C)C)C(C)(C)O (some centres unmarked)
6,0.001 to 0.1,CN(C)C(=O)C[C@@H](NC(=O)CNC(=O)C(=O)[C@H](CC1CCC1)NC(=O)[C@@H]1[C@H]2OC(C)(C)O[C@H]2CN1C(=O)[C@@H](NC(=O)OC(C)(C)C)C1CCCCC1)c1ccccc1
7,0.001 to 0.1,CN(C)C(=O)C(NC(=O)CNC(=O)C(=O)C(CC1CC1)NC(=O)[C@@H]1[C@@H]2[C@H](CN1C(=O)[C@@H](NC(=O)OC(C)(C)C)C(C)(C)C)C2(F)F)c1ccccc1 (some centres unmarked)
8,0.001 to 0.1,C=CCCC(NC(=O)[C@@H]1[C@@H]2[C@H](CN1C(=O)[C@@H](NC(=O)NC(C)(C)C)C1CCCCC1)C2(C)C)C(=O)C(=O)NCCC(=O)N(C)CCc1ccccc1 (some centres unmarked)
9,0.001 to 0.1,CC(C)(C)[C@H](NC(=O)OC(C)(C)C(F)(F)F)C(=O)N1C[C@H]2[C@@H]([C@H]1C(=O)NC(CC1CC1)C(=O)C(N)=O)C2(Cl)Cl (some centres unmarked)

row,Compound,Ki [µM]
1,"CN(C)C(=O)[C@@H](NC(=O)CNC(=O)C(=O)C(CC1CC1)NC(=O)[C@@H]1[C@@H]2[C@H](CN1C(=O)[C@@H](NC(=O)NC(C)(C)C)C(C)(C)C)C2(C)C)c1ccccc1 (stereo partly drawn) ({NHtBu-CO}-[Tle][Pro(3R,4S-CMe2)][X8]G[Phg]-NMe2)",0.001 to 0.1
2,"CN(C)C(=O)C(NC(=O)CNC(=O)C(=O)C(CC1CC1(F)F)NC(=O)[C@@H]1[C@@H]2[C@H](CN1C(=O)C(NC(=O)OC(C)(C)C)C1CCCCC1)C2(C)C)c1ccccc1 (stereo partly drawn) (Boc-[ξChg][Pro(3R,4S-CMe2)][X67]G[ξPhg]-NMe2)",0.001 to 0.1

# *1 amine or outer side, *2 acyl side, *3 side chain or, on linkers, in order; H or OH if unused. Where a SMILES comes first, the peptide text is derived from it. [ ]: non-standard residue; d: D form. The star is where a group is joined. ξ: configuration not given here. Pro(3R,4S-CMe2) = CC1(C)[C@@H]2[C@@H](C(=O)O)NC[C@@H]21; Pro(3S,4R-CMe2) = CC1(C)[C@H]2[C@@H](C(=O)O)NC[C@H]21; Isobutoxycarbonyl(1S-Me) = CC(C)[C@H](C)OC(=O)*; NH(1-Adamantyl) = C1C2CC3CC1CC(N*)(C2)C3; X67 = O=C(C(=O)[*:2])C(CC1CC1(F)F)N[*:1]; Pro(4,4-Me2) = CC1(C)CN[C@H](C(=O)O)C1; X8 = O=C(C(=O)[*:2])C(CC1CC1)N[*:1]; X6 = C=CCCC(N[*:1])C(=O)C(=O)[*:2]; Igl = N[C@H](C(=O)O)C1Cc2ccccc2C1; X2 = CCCC(N[*:1])C(=O)C(=O)[*:2]; Phg = N[C@H](C(=O)O)c1ccccc1; Tle = CC(C)(C)[C@H](N)C(=O)O; ξChg = NC(C(=O)O)C1CCCCC1; ξPhg = NC(C(=O)O)c1ccccc1; Boc = CC(C)(C)OC(=O)*; CO = O=C([*:1])[*:2]; NHtBu = CC(C)(C)N*
